# Results published in PubChem BioAssay (NCI).
# Several values for one entry are separate records, joined by “and”; a condition that tells them apart may be missing. Equal entries are not always repeated.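 Protocol summary: plate cells (96-well), add compound at 5 concentrations, incubate 48 h, interpolate endpoints linearly. The concentration for 50% growth inhibition is given as GI50. TGI: concentration producing complete growth inhibition.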 Activity calls are given as the source filed them.
# Columns and labels:
# Test in all cases: NCI tumour cell line growth inhibition, 48 h
# 786-0 renal = test system: 786-0 renal
# A498 renal = test system: A498 renal
# A549 NSCLC = test system: A549 NSCLC
# ACHN renal = test system: ACHN renal
# BT-549 breast = test system: BT-549 breast
# CAKI-1 renal = test system: CAKI-1 renal
# CCRF-CEM leukemia = test system: CCRF-CEM leukemia
# COLO 205 colon = test system: COLO 205 colon
# DLD-1 colon = test system: DLD-1 colon
# DMS 114 small cell lung = test system: DMS 114 small cell lung
# DMS 273 small cell lung = test system: DMS 273 small cell lung
# DU-145 prostate = test system: DU-145 prostate
# EKVX NSCLC = test system: EKVX NSCLC
# HCC-2998 colon = test system: HCC-2998 colon
# HCT-15 colon = test system: HCT-15 colon
# HL-60(TB) leukemia = test system: HL-60(TB) leukemia
# HOP-18 NSCLC = test system: HOP-18 NSCLC
# HOP-62 NSCLC = test system: HOP-62 NSCLC
# HOP-92 NSCLC = test system: HOP-92 NSCLC
# HS 578T breast = test system: HS 578T breast
# HT29 colon = test system: HT29 colon
# IGROV1 ovarian = test system: IGROV1 ovarian
# K-562 leukemia = test system: K-562 leukemia
# KM12 colon = test system: KM12 colon
# KM20L2 colon = test system: KM20L2 colon
# LOX IMVI melanoma = test system: LOX IMVI melanoma
# M14 melanoma = test system: M14 melanoma
# MALME-3M melanoma = test system: MALME-3M melanoma
# MCF7 breast = test system: MCF7 breast
# MDA-MB-231 breast = test system: MDA-MB-231 breast
# MDA-MB-435 = test system: MDA-MB-435
# MDA-N = test system: MDA-N
# MOLT-4 leukemia = test system: MOLT-4 leukemia
# NCI-H226 lung = test system: NCI-H226 lung
# NCI-H23 lung = test system: NCI-H23 lung
# NCI-H460 lung = test system: NCI-H460 lung
# NCI/ADR-RES ovarian = test system: NCI/ADR-RES ovarian
# OVCAR-3 ovarian = test system: OVCAR-3 ovarian
# OVCAR-4 ovarian = test system: OVCAR-4 ovarian
# OVCAR-5 ovarian = test system: OVCAR-5 ovarian
# OVCAR-8 ovarian = test system: OVCAR-8 ovarian
# P388 leukemia = test system: P388 leukemia
# P388/ADR leukemia = test system: P388/ADR leukemia
# PC-3 prostate = test system: PC-3 prostate
# RPMI-8226 leukemia = test system: RPMI-8226 leukemia
# SF-268 CNS = test system: SF-268 CNS
# SF-295 CNS = test system: SF-295 CNS
# SF-539 CNS = test system: SF-539 CNS
# SK-MEL-2 melanoma = test system: SK-MEL-2 melanoma
# SK-MEL-28 melanoma = test system: SK-MEL-28 melanoma
# SK-MEL-5 melanoma = test system: SK-MEL-5 melanoma
# SN12C renal = test system: SN12C renal
# SN12K1 renal = test system: SN12K1 renal
# SNB-75 CNS = test system: SNB-75 CNS
# SNB-78 CNS = test system: SNB-78 CNS
# SR leukemia = test system: SR leukemia
# SW-620 colon = test system: SW-620 colon
# U251 CNS = test system: U251 CNS
# UACC-257 melanoma = test system: UACC-257 melanoma
# UACC-62 melanoma = test system: UACC-62 melanoma
# UO-31 renal = test system: UO-31 renal
# XF 498 CNS = test system: XF 498 CNS
smiles,measurement,setting,value
COc1cc2c(c(OC)c1OC)-c1ccc(OC)c(=O)cc1[C@@H](N)CC2,GI50,786-0 renal,0.043 µM
same,GI50,A498 renal,0.0288 µM
same,GI50,A549 NSCLC,0.0366 µM and 0.0342 µM
same,TGI,A549 NSCLC,> 250 µM
same,GI50,ACHN renal,0.0884 µM
same,TGI,BT-549 breast,0.679 µM
same,GI50,CAKI-1 renal,0.0293 µM
same,GI50,CCRF-CEM leukemia,0.0391 µM and 0.132 µM and 0.025 µM
same,TGI,CCRF-CEM leukemia,59.6 µM
same,GI50,COLO 205 colon,0.0478 µM and 0.0558 µM and 0.0251 µM
same,TGI,COLO 205 colon,0.175 µM and 0.138 µM and 0.0684 µM
same,GI50,DLD-1 colon,0.0352 µM and 0.0342 µM
same,TGI,DLD-1 colon,> 250 µM
same,TGI,DMS 114 small cell lung,0.103 µM and 0.087 µM
same,GI50,DMS 273 small cell lung,< 0.01 µM and 0.025 µM
same,TGI,DMS 273 small cell lung,0.0732 µM
same,GI50,DU-145 prostate,0.0459 µM
same,TGI,DU-145 prostate,0.273 µM and 0.0934 µM
same,GI50,EKVX NSCLC,0.025 µM
same,TGI,EKVX NSCLC,> 250 µM
same,GI50,HCC-2998 colon,0.0258 µM and 0.025 µM
same,GI50,HCT-15 colon,0.0604 µM and 0.0618 µM
same,TGI,HCT-15 colon,38.2 µM and 7.13 µM
same,GI50,HL-60(TB) leukemia,0.0218 µM and 0.025 µM
same,TGI,HL-60(TB) leukemia,0.057 µM and 0.0414 µM
same,GI50,HOP-18 NSCLC,inactive
same,TGI,HOP-18 NSCLC,> 250 µM
same,GI50,HOP-62 NSCLC,0.0499 µM and 0.0544 µM
same,TGI,HOP-62 NSCLC,> 250 µM
same,GI50,HOP-92 NSCLC,0.142 µM and 0.025 µM
same,TGI,HOP-92 NSCLC,0.0286 µM
same,TGI,HS 578T breast,3.66 µM
same,GI50,HT29 colon,0.0275 µM and 0.012 µM and 0.025 µM
same,GI50,IGROV1 ovarian,0.0951 µM
same,TGI,IGROV1 ovarian,> 250 µM
same,GI50,K-562 leukemia,0.038 µM and 0.0327 µM
same,TGI,K-562 leukemia,82.1 µM and 61.2 µM
same,GI50,KM12 colon,0.0654 µM and 0.0195 µM and 0.025 µM
same,GI50,KM20L2 colon,0.025 µM
same,TGI,KM20L2 colon,0.0432 µM and 0.025 µM
same,GI50,LOX IMVI melanoma,0.066 µM
same,TGI,LOX IMVI melanoma,79.9 µM
same,GI50,M14 melanoma,0.0634 µM and 0.0155 µM
same,TGI,M14 melanoma,10.6 µM
same,GI50,MALME-3M melanoma,0.0851 µM and 0.025 µM
same,TGI,MALME-3M melanoma,99.4 µM and > 250 µM
same,GI50,MCF7 breast,0.0343 µM and 0.025 µM
same,TGI,MCF7 breast,167 µM
same,GI50,MDA-MB-231 breast,0.035 µM
same,TGI,MDA-MB-231 breast,0.874 µM
same,GI50,MDA-MB-435,0.00849 µM
same,TGI,MDA-MB-435,0.0238 µM and 0.0271 µM
same,GI50,MDA-N,0.0125 µM and < 0.01 µM
same,TGI,MDA-N,0.0376 µM and 0.311 µM
same,GI50,MOLT-4 leukemia,0.025 µM
same,TGI,MOLT-4 leukemia,52.3 µM and 11.6 µM
same,GI50,NCI-H226 lung,0.0338 µM
same,GI50,NCI-H23 lung,0.0675 µM and 0.0223 µM and 0.025 µM
same,TGI,NCI-H23 lung,4.51 µM and 16.4 µM
same,GI50,NCI-H460 lung,0.037 µM and 0.0301 µM
same,TGI,NCI-H460 lung,29.6 µM and 19.4 µM
same,GI50,NCI/ADR-RES ovarian,inactive
same,TGI,NCI/ADR-RES ovarian,1.1 µM and 1.98 µM
same,GI50,OVCAR-3 ovarian,0.0499 µM and 0.025 µM
same,TGI,OVCAR-3 ovarian,0.0218 µM and 0.0384 µM
same,TGI,OVCAR-4 ovarian,243 µM
same,GI50,OVCAR-5 ovarian,inactive
same,TGI,OVCAR-5 ovarian,> 250 µM
same,GI50,OVCAR-8 ovarian,0.0423 µM
same,TGI,OVCAR-8 ovarian,15 µM and 2.54 µM
same,TGI,P388 leukemia,5.55 µM
same,TGI,P388/ADR leukemia,11.8 µM
same,TGI,PC-3 prostate,22.2 µM
same,GI50,RPMI-8226 leukemia,0.047 µM and 0.0357 µM
same,TGI,RPMI-8226 leukemia,74.6 µM and 116 µM
same,GI50,SF-268 CNS,0.0624 µM and 0.0549 µM
same,TGI,SF-268 CNS,> 250 µM
same,GI50,SF-295 CNS,0.0281 µM and 0.0123 µM and 0.028 µM
same,TGI,SF-295 CNS,0.0648 µM and 0.123 µM and 0.0389 µM
same,GI50,SF-539 CNS,0.0248 µM and 0.031 µM
same,TGI,SF-539 CNS,0.186 µM and 0.046 µM and 0.0781 µM
same,TGI,SK-MEL-2 melanoma,0.988 µM and 1.98 µM and 0.423 µM
same,TGI,SK-MEL-28 melanoma,> 250 µM
same,GI50,SK-MEL-5 melanoma,0.0312 µM and 0.0159 µM and 0.025 µM
same,GI50,SN12C renal,0.0485 µM and 0.0507 µM
same,TGI,SN12C renal,110 µM
same,TGI,SN12K1 renal,0.025 µM
same,GI50,SNB-75 CNS,0.0288 µM and 0.025 µM
same,TGI,SNB-75 CNS,0.115 µM
same,GI50,SNB-78 CNS,0.0149 µM and 0.0432 µM
same,TGI,SNB-78 CNS,> 250 µM
same,GI50,SR leukemia,0.0546 µM
same,GI50,SW-620 colon,0.0367 µM and 0.0445 µM
same,TGI,SW-620 colon,> 250 µM
same,GI50,U251 CNS,0.043 µM and 0.0353 µM
same,TGI,U251 CNS,8.33 µM and 17.5 µM
same,TGI,UACC-257 melanoma,81.6 µM and > 250 µM
same,GI50,UACC-62 melanoma,0.0257 µM
same,TGI,UACC-62 melanoma,43.9 µM and 6.65 µM
same,GI50,UO-31 renal,0.343 µM
same,TGI,UO-31 renal,240 µM
same,GI50,XF 498 CNS,0.039 µM and 0.025 µM
